# According to US20250011455A1 (HANGZHOU BANGSHUN PHARMACEUTICAL, published 2025):
# T1: human CD39 on the cell surface (human, UniProt P49961 1-510)
# T1 construct: whole, on cells; also called hCD39; NTPDase 1
# T1 sequence (looked up): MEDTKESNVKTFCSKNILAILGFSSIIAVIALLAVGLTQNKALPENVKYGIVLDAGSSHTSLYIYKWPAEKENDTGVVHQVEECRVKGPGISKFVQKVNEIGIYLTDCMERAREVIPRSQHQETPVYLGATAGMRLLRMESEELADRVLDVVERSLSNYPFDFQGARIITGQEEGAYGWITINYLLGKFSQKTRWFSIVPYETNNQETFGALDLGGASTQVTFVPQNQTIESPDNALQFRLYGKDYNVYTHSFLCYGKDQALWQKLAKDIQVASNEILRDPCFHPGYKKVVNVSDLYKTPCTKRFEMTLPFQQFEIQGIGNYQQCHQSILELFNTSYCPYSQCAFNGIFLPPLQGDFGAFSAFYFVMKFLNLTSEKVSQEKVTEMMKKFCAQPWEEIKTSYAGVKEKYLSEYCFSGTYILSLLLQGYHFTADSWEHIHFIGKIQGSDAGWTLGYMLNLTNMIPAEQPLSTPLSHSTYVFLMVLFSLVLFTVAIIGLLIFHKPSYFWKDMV
# How the values were obtained:
# [1] = target: T1, human CD39 on the cell surface; assay: FACS on SK-MEL-28 cells (natural human CD39)
# [2] = target: T1, human CD39 on the cell surface; assay: cell-based or functional assay
EC50 [1],Enzymatic activity inhibition (EC50 nM) [2],Binder
1.01 nM,0.04 nM,"humanized antibody F03-9 (antibody, human IgG4 S228P, kappa, Human IgG4 (S228P) and human kappa constant regions) heavy: QVQLVQSGAEVKKPGASVKVSCKASGYTFTNYWMYWVRQRPGRGLEWIGRIAPSSGATKYNEKFKNRATLTVDTSISTAYMELSRLRSDDTAVYYCARSGIYYDYDWFFDVWGQGTTVTVSSASTKGPSVFPLAPCSRSTSESTAALGCLVKDYFPEPVTVSWNSGALTSGVHTFPAVLQSSGLYSLSSVVTVPSSSLGTKTYTCNVDHKPSNTKVDKRV[human IgG4 Fc with S228P (EU numbers) omitted here] light: DIQMTQSPSSLSASVGDRVTITCKASQDINKYIGWYQQKPGKAPKLLIHYTSTLQPGVPSRFSGSGSGTDFTFTISSLQPEDIATYYCLQYHALLFTFGQGTKLEIKRTVAAPSVFIFPPSDEQLKSGTASVVCLLNNFYPREAKVQWKVDNALQSGNSQESVTEQDSKDSTYSLSSTLTLSKADYEKHKVYACEVTHQGLSSPVTKSFNRGEC"
1.48 nM,0.02 nM,"humanized antibody F03-10 (antibody, human IgG4 S228P, kappa, Human IgG4 (S228P) and human kappa constant regions) heavy: QVQLVQSGAEVKKPGASVKVSCKASGYTFTNYWMYWVRQRPGRGLEWIGRIAPSSGATKYNEKFKNRATLTVDTSISTAYMELSRLRSDDTAVYYCARSGIYYDYDWFFDVSGQGTTVTVSSASTKGPSVFPLAPCSRSTSESTAALGCLVKDYFPEPVTVSWNSGALTSGVHTFPAVLQSSGLYSLSSVVTVPSSSLGTKTYTCNVDHKPSNTKVDKRV[human IgG4 Fc with S228P (EU numbers) omitted here] light: DIQMTQSPSSLSASVGDRVTITCKASQDINKYIGWYQQKPGKAPKLLIHYTSTLQPGVPSRFSGSGSGTDFTFTISSLQPEDIATYYCLQYHALLFTFGQGTKLEIKRTVAAPSVFIFPPSDEQLKSGTASVVCLLNNFYPREAKVQWKVDNALQSGNSQESVTEQDSKDSTYSLSSTLTLSKADYEKHKVYACEVTHQGLSSPVTKSFNRGEC"
